34 sequences from the supplement of paper PMC10338343 can be followed below.

± gives the standard deviation. Only a part is listed here, and it is no random draw.

The subject of this assay is MIWI (PIWIL1) piRISC loaded with L1MC piRNA (30 nt). Description: pre-steady-state target cleavage rate (min^-1); MIWI and MILI are mouse PIWI proteins and EfPiwi is from a freshwater sponge; tags in brackets are library labels; higher = faster piRNA-guided slicing of the target. As to conditions: guide: L1MC piRNA 5'p-UAACUAAAUACUAUGCAAGCUGUAGGUCCU; auxiliary factor: 500 nM mouse GTSF1. The essentials:
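Cleave-'n-Seq: 1 nM active affinity-purified piRISC with one synthetic guide and 0.1 nM transcribed, DNA-blocked target RNA library were mixed, with or without 500 nM GTSF1 partner protein, in HEPES–potassium acetate buffer at 33 °C for 0–8 or 0–960 min. Uncleaved targets were sequenced and normalised to depth and to weakly complementary targets, three trials were pooled, and k3 was capped at 0.0001 min^-1. The pre-steady-state cleavage rate was fitted […].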
Turning to UCCUGCUACAGCUUGCAAAGUAUUUACAAA, the “pre-steady-state target cleavage rate” value worked out at 0.192 ± 0.027. For UCCUGCUACAGGUUCCAUAGUAUUUAGUUA the value was 0.0205 ± 0.013; for UCCUGGAUCAGCUUCGUUAGUAUUUAGUUA, 0.00559 ± 0.0037; for UCCUGGAUCAGCAUCCAUAGUAUUUAGUUA, 0.051 ± 0.017. On to UCCUGCUACAGCAUGCAUAGUAUUUAGAAA, for which the “pre-steady-state target cleavage rate” value was 0.324 ± 0.053. For UCCUGGAACAGCUUCCAUAGUUUUUAGUUA, the “pre-steady-state target cleavage rate” value was 0.00871 ± 0.0042. Consider AGGACCUACAGCUUGCUAUGUAUUUACAAA, for which the “pre-steady-state target cleavage rate” value came to 0.0117 ± 0.0059. For the sequence UCCUGGAAGUCCUUGCAUAGUAUUUACAAA, the “pre-steady-state target cleavage rate” value was 0.0113 ± 0.0052. Regarding UCCUGCUAGUGCUUGCAUAGUAUUUAGUAA, the “pre-steady-state target cleavage rate” value was 0.0259 ± 0.0089. Regarding UCCUGGUACAGCUACCAUAGUAUUUAGAAA, the “pre-steady-state target cleavage rate” value came to 0.015 ± 0.0072. For UCCUCCUACAGCUUGGAUAGUAUUUACAAA the value was 0.0583 ± 0.015; for UCCUGGUACAGCUUGCAUAGUAUUUUCAUA, 0.188 ± 0.051; for UCCUGGAUGUCGAAGCAUAGUAUUUAGUGA, 0.00593 ± 0.0034. Take UCCUGCUAGUGCUUGCAUAGUAUUUAGAAA: the “pre-steady-state target cleavage rate” value was found to be 0.0199 ± 0.0065. For UCCUGGAUCAGCUUGCAUUCUAUUUAGUAA the value was 0.0206 ± 0.0076. UCCUGCUACAGCUUGCAUAGUUAUUUCAAA: the “pre-steady-state target cleavage rate” value came to 0.01 ± 0.0048.

For UCCUGGAUGUCGUUGCAUAGUAUUUUAGUUA, the “pre-steady-state target cleavage rate” value came out at 0.00656 ± 0.0039. Consider UCCUGGUACAGCUUGCAUACUAUUUAGAAA, for which the “pre-steady-state target cleavage rate” value was found to be 0.0759 ± 0.024.

With UCCUGGAUGUCGAACGUAUGCUAUUUAGUUA, the “pre-steady-state target cleavage rate” value is under 0.0001. In the case of UCCUGCUACUCCUUGCAUAGUAUUUACAAA, the “pre-steady-state target cleavage rate” value came out at 0.122 ± 0.02. As for UCCUGGAACAGCUUGCAUAGUAUUUAUUA, the “pre-steady-state target cleavage rate” value was 0.167 ± 0.033.

Take UCCUGGAUGAGCAAGCAUAGUAUUUAGUAA: the “pre-steady-state target cleavage rate” value is 0.0379 ± 0.01. On to UGGACCUACAGCUUGCAAUCUAUUUAGUUA, for which the “pre-steady-state target cleavage rate” value stood at 0.207 ± 0.022.

As for UCGACCUACAGCUUGCAUAGUUAAUAGAAA, the “pre-steady-state target cleavage rate” value stood at 0.194 ± 0.054.

As for UCCUGGUACUCGUUGCAUAGUAUUUAGUAA, the “pre-steady-state target cleavage rate” value was found to be 0.0165 ± 0.0088. Regarding UCCUGGUACAGCUACCAUAGUAUUUAGUUA, the “pre-steady-state target cleavage rate” value turned out to be 0.366 ± 0.05. In the case of UCGACCUACAGCUUGCAUAGUAAAUUCAAA, the “pre-steady-state target cleavage rate” value was determined as 0.709 ± 0.18. With UCCACCUACAGGUUCCAUAGUAUUUAGUUA, the “pre-steady-state target cleavage rate” value worked out at 0.0655 ± 0.022. For UCCUCCUACAGCAUGCAUAGUAUUUACAAA, the “pre-steady-state target cleavage rate” value was 0.47 ± 0.064. Regarding UCCUGCUAGUCCUUGCAUAGUAUUUACAAA, the “pre-steady-state target cleavage rate” value amounted to 0.006 ± 0.0042. In the case of UCCUGGAUCAGCUUCCAUAGUAUUUACUUA, the “pre-steady-state target cleavage rate” value is 0.00581 ± 0.0044.

Take UCCACCUACAGCAUCCAUAGUAUUUAGUUA: the “pre-steady-state target cleavage rate” value amounted to 0.169 ± 0.038. With UCCUCCAACAGCUUGCAUAGUAUUUUCAAA, the “pre-steady-state target cleavage rate” value turned out to be 0.28 ± 0.035.

Turning to UCCUGGUACUGCUUGCAUAGUAUUUUCAAA, the “pre-steady-state target cleavage rate” value came to 0.0549 ± 0.016.
